# Results as given in the supplement of paper PMC10681739.
# Whole data set: some 2,700 sequences, median “arbitrary fluorescence units” near 4,100, cut for the highest 2% near 54,000. The list shows a part of the results.
# Molecular target: T1, ETS1 (UniProt P14921)
# T1 sequence: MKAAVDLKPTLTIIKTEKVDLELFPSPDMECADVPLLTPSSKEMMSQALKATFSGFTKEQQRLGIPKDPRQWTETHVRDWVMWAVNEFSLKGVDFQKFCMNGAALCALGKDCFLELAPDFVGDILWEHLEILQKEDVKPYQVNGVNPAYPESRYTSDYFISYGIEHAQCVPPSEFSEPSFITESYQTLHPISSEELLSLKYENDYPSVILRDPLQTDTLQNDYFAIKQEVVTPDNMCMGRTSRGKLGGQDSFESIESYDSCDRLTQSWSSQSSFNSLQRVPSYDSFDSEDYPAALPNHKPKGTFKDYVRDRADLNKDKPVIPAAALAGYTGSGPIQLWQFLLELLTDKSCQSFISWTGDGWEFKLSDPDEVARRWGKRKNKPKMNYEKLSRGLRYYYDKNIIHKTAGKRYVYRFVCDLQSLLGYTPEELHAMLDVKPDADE
# Assay: ETS1 binding intensity (PBM fluorescence) (arbitrary fluorescence units); higher = stronger binding
# Details: ETS1 concentration 10 nM
# Method: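 gcPBM on wild-type 36-bp genomic probes with two neighbouring ETS1 sites (4-24 bp apart). Recombinant human ETS1 (10 nM) was detected with anti-ETS1 antibody fluorescence. Values are medians over 3 replicate spots. The probes sit in constant array flanks that are not printed.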
row,Sequence,ETS1 binding intensity
1,CCCCACCGACTTCCGGCTTTGTTTCCTCATCTGTAA,52800
2,TCCCATTTCCCGACGCCGCGCCCGGCTTCCGCTTTA,4190
3,GCTGTCAGCGCTTCCGAGGTCCGGAAGACCTGCCTA,976
4,ACGGCCGGAAAACGCTCCAGCGCGCCGGAAGTCCCG,5390
5,CCTAATGGTTTCCTCCCTTCTCTCTTCCTCCCTCTA,2210
6,CAGGCAGGAAGTGAAAGGGGCCTGCAGGAAGCCCCA,8970
7,TACCCGGAAGGTGCCGGGTTCGAGCCCGGAACGGCC,353
8,TGAGCTATTTGACTTCCGGTTTCCTGCCCCATTTAA,63200
9,AACTCTTCCTGACATGGAGGTCTCCACTTCCTGTCC,8380
10,GTAACCGGAAATAAAGACCTCCGATCTTCCGCCCCA,28300
11,AGAACCGGATTGGGCCGCGGCGGGGACGGAAGCGGC,237
12,CCCTTCAAGGGAAGTCTTAGTACATCCGGTTGACAC,15500
13,AGTCACACAGGAAATGGAGCCAGGGGATGTGCTCAA,14800
14,GTCACTTCCTGACCCTTGCTCAAGAGCATCCGGAGC,26400
15,CTCCGCCCGGAACAGCCGCGGCGCCGGAAGTGGACC,4600
16,TGGGTTCCGCCTTAGCGATCGGTTGGGAGGAAGGCT,706
17,GGATTGCAGGAAGGGCTCAGGCAACTTCCTGTGTTT,6090
18,GATGCCAGGAAGCTGAGAATTGTCAGGATGTTTGTC,1090

row,Sequence,ETS1 binding intensity
1,TCCCCTCTGCCTTCCGCGCCCGGATAAGAATCGAAC,183
2,AGGGGAATCAGACAGGAAGGAAGTGCCATTGTGATA,1790
3,GGGCGACCCCGCAGGAAGTAGGAAGGACGAGCGCGC,1760
4,CCCAAACAGGAAGAAGGGACATAGGGAAATGGCCCT,5770
5,AGAGTTTCCTACATTCTTTACATTCACAGGATATCT,1830
6,TGAGCTTCCTGCCAGAAATGAGATTTGGGAAGTTTG,16700
7,TGCACTCACACTTCCTCCCATTTCCTGTGGGCGGCC,16700
8,TTTCTGGCATTTCCCGTTACAACATCCTGCTCTGCC,10700
9,GACAGTTTCCTCTTTCACACTAGAATATCCTGTTGT,10900
10,ACTGCAGCCTCCTTCCTGTGCTTCCTCACCCGGGCC,6800
11,CCAGGGACTTCCGTTGTCGTCAGCGGAAGCGGTGAC,31700
12,TGGGTGCCCCTTCCTGTGGGTGGGAAATGGGGAGCG,8410
13,AAAGAACGAGGAAATGAATGAAAGGAAGTGCTTTGA,834
14,TGATGATGCTGTTCCGGGGGCATCCTGGCGAGTGAG,417
15,TCGGCCACTTCCGGCGCGCGGGGCGGAAAGCGGGCG,75800
16,AGAGCGCAGTTTCCGGTAGACCCGGAAGCCGATTGC,37700
17,CCCACCCACTTCCGCCTAGCTACCGGAAGTTTCTAT,28800
